Relative growth data for 58 compounds are collected here from the supplement of paper PMC9446081.

Screen size: about 39,000 compounds; about 220 (0.56%) showed activity. The list shows a part of the results.
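Also: static incubation at 37 °C against the wild-type strain, values averaged over two biological replicates.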

The test relates to Escherichia coli K-12 BW25113. Nature of the test: relative growth (OD600 normalised to plate interquartile mean) (fraction); higher = less growth inhibition, active = 0.2 or less. To be noted: 50 µM; LB; incubation time: overnight (16-24 h).
On to `C[C@@H]1CN([C@@H](C)CO)C(=O)Cc2cc(NC(=O)Nc3ccc4c(c3)OCO4)ccc2O[C@H]1CN(C)Cc1ccc(C(=O)Nc2ccccc2N)cc1`, for which the relative growth is inactive: 0.97. In the case of `C[C@@H]1CN([C@@H](C)CO)C(=O)c2c(c3ccccc3n2C)-c2ccccc2CO[C@H]1CN(C)S(=O)(=O)c1ccc(C(F)(F)F)cc1` it was inactive: 1.03.

`C[C@H](CO)N1C[C@H](C)[C@@H](CN(C)S(=O)(=O)c2ccccc2)Oc2ccc(NC(=O)CCN3CCOCC3)cc2CC1=O`: the relative growth was inactive: 1.02. In the case of `CO[C@H]1C[C@@H]2CC[C@@H](C)[C@@](O)(O2)C(=O)C(=O)N2CCCC[C@H]2C(=O)O[C@H]([C@H](C)C[C@@H]2CC[C@@H](O)[C@H](OC)C2)CC(=O)[C@H](C)/C=C(\C)[C@@H](O)[C@@H](OC)C(=O)[C@H](C)C[C@H](C)/C=C/C=C/C=C/1C` it was inactive: 0.989; in that of `Cc1c(C(N)=O)cc([N+](=O)[O-])cc1[N+](=O)[O-]`, inactive: 1.01. In the case of `COc1ccc(S(=O)(=O)Nc2ccc3c(c2)C(=O)N([C@@H](C)CO)C[C@H](C)[C@@H](CN(C)Cc2ccc(-c4ccccc4)cc2)O3)cc1` it was inactive: 1; in that of `O=C1CSCC(=O)N1c1cccnc1`, inactive: 0.989; in that of `COCCNC(=O)C[C@H]1CC[C@@H](NS(=O)(=O)c2ccc(C)cc2)[C@H](CO)O1`, inactive: 1.07. Take `Cc1ccc(S(=O)(=O)Nc2ccc3c(c2)C(=O)N([C@@H](C)CO)C[C@@H](C)[C@H](CN(C)Cc2ccc(C(F)(F)F)cc2)O3)cc1`: the relative growth is inactive: 1.03.

Consider `COc1ccc(C#Cc2ccc3c(c2)O[C@@H](CN(C)C(=O)c2ccccn2)[C@@H](C)CN([C@H](C)CO)S3(=O)=O)cc1`, for which the relative growth is inactive: 1.03.

Turning to `C[C@@H]1CN([C@@H](C)CO)S(=O)(=O)c2ccc(-c3ccncc3)cc2O[C@@H]1CN(C)C(=O)c1cccc(F)c1`, the relative growth was inactive: 0.988. In the case of `COc1ccc(CN(C)C[C@@H]2Oc3ccc(NS(=O)(=O)c4c(C)noc4C)cc3C(=O)N([C@@H](C)CO)C[C@@H]2C)cc1` it was inactive: 0.988; in that of `C[C@H](CO)N1C[C@H](C)[C@H](CN(C)C(=O)Nc2cccc3ccccc23)Oc2ccc(NC(=O)Nc3cccc4ccccc34)cc2C1=O`, inactive: 1.02; in that of `Cc1cccc(/C=N/Nc2cc(N3CCOCC3)n3nc(-c4ccncc4)cc3n2)c1`, inactive: 1.03. In the case of `CC(C)NC(=O)N(C)C[C@@H]1Oc2cc(-c3ccccc3F)ccc2S(=O)(=O)N([C@H](C)CO)C[C@H]1C` it was inactive: 1.01; in that of `C[C@H]1CCCCO[C@@H](CN(C)S(=O)(=O)c2cccs2)[C@@H](C)CN([C@@H](C)CO)C(=O)c2cc(NC(=O)NC3CCCCC3)ccc2O1`, inactive: 1.01; in that of `Cc1ccc(S(=O)(=O)n2cc([C@@H]3CC(=O)N(C(=O)OCc4ccccc4)[C@@H]3C(=O)Nc3cccc4cccnc34)c3ccccc32)cc1`, inactive: 1.02. With `C[C@@H]1CCCCO[C@H](CN(C)C(=O)C2CCCCC2)[C@@H](C)CN([C@@H](C)CO)C(=O)c2cc(NC(=O)c3ccncc3)ccc2O1`, the relative growth was inactive: 1. The same measure for `COc1ccc(CN(C)C[C@H]2OCCCC[C@@H](C)Oc3ccc(NC(=O)c4ccccc4)cc3C(=O)N([C@@H](C)CO)C[C@@H]2C)cc1`: inactive: 1.03. As for `CCS(=O)(=O)N(C)C[C@@H]1OCc2ccccc2-c2c(n(C)c3ccccc23)C(=O)N([C@H](C)CO)C[C@@H]1C`, the relative growth is inactive: 1.02. In the case of `CO[C@@H]1CN(C)C(=O)c2cc(NS(C)(=O)=O)ccc2OC[C@H](C)N(C(=O)C2CCOCC2)C[C@@H]1C` it was inactive: 1.01; in that of `C[C@H]1COC(=O)[C@H](Cc2ccc(F)cc2)CC=CC[C@@H](CC(=O)N[C@@H](CO)Cc2ccccc2)C(=O)N1`, inactive: 0.988; in that of `COc1ccc(-c2cnc3c(c2)C(=O)N([C@@H](C)CO)C[C@H](C)[C@@H](CN(C)C(=O)Cc2ccccn2)O3)cc1`, inactive: 1. With `COc1ccc(C(=O)N[C@@H](C)c2nnc(SCc3cccc(C(F)(F)F)c3)n2-c2cccc(Cl)c2)cc1`, the relative growth was inactive: 1.04. The same measure for `O=C(Cc1ccncc1)NCC[C@H]1CC[C@H](NC(=O)C2CCOCC2)[C@H](CO)O1`: inactive: 0.984; for `C[C@H]1CN([C@@H](C)CO)C(=O)c2cc(/C=C/c3ccccc3)cnc2O[C@H]1CN(C)S(=O)(=O)c1cn(C)cn1`: inactive: 1.02. Take `C[C@H](CO)N1C[C@H](C)[C@H](CN(C)S(=O)(=O)c2cn(C)cn2)OCCCC[C@H](C)Oc2ccc(N(C)C)cc2C1=O`: the relative growth was inactive: 0.985. In the case of `CS(=O)(=O)N1C[C@@H](O)COC[C@H]2O[C@H](CC(=O)NCc3ccccc3)CC[C@@H]21` it was inactive: 1.01; in that of `NC1CCN(c2cccc(Cl)n2)CC1`, inactive: 0.978. With `CCCCCCCCCCNc1cc(CO)c2cc[nH]c2c1`, the relative growth was inactive: 1.

`C[C@@H]1CN([C@@H](C)CO)C(=O)c2cc(C#CCN(C)C)cnc2O[C@@H]1CN(C)C(=O)CN1CCOCC1`: the relative growth is inactive: 1.02. Turning to `C[C@H](CO)N1C[C@H](C)[C@@H](CN(C)S(C)(=O)=O)Oc2ncc(C#CCN(C)C)cc2C1=O`, the relative growth was inactive: 0.978. The same measure for `COCC#Cc1cnc2c(c1)C(=O)N([C@H](C)CO)C[C@H](C)[C@@H](CN(C)C(=O)Nc1ccccc1OC)O2`: inactive: 0.986; for `C[C@@H]1CN([C@@H](C)CO)C(=O)c2cccc(NS(C)(=O)=O)c2O[C@@H]1CN(C)S(=O)(=O)c1cccs1`: inactive: 1; for `C[C@@H]1CCCCO[C@H](CN(C)S(=O)(=O)c2cccs2)[C@@H](C)CN([C@H](C)CO)C(=O)c2cc(NC(=O)Nc3ccc(C(F)(F)F)cc3)ccc2O1`: inactive: 1.01. The same measure for `C[C@@H]1CN([C@@H](C)CO)C(=O)Cc2cc(NC(=O)Cn3cnnn3)ccc2O[C@@H]1CN(C)Cc1ccc(-c2ccccc2)cc1`: inactive: 1.02; for `COc1ccc2c3c([nH]c2c1)[C@H](CO)N(C[C@]13CCN(CC1)C(=O)Nc1cccc(c1)F)C(=O)c1ccc(cc1)F`: inactive: 1.02. Consider `O=C(C1=C[C@@H](c2ccc(Br)cc2)C[C@@H](OCc2ccc(CO)cc2)O1)N1CCCCCCC1`, for which the relative growth is inactive: 1.09. The same measure for `C[C@H](CO)N1C[C@H](C)[C@@H](CN(C)S(=O)(=O)c2cn(C)cn2)Oc2ccc(NS(=O)(=O)c3ccccc3)cc2C1=O`: inactive: 0.981; for `CCS(=O)(=O)N(C)C[C@H]1OCc2ccccc2-c2c(n(C)c3ccccc23)C(=O)N([C@H](C)CO)C[C@H]1C`: inactive: 1.05. With `Cc1ccc(S(=O)(=O)Nc2ccc3c(c2)CC(=O)N([C@@H](C)CO)C[C@H](C)[C@H](CN(C)C(=O)Nc2cccc4ccccc24)O3)cc1`, the relative growth was inactive: 1.02. The same measure for `Cc1ccc(S(=O)(=O)Nc2ccc3c(c2)C(=O)N([C@H](C)CO)C[C@H](C)[C@H](CN(C)C(=O)Cc2ccccc2)OCCCC[C@H](C)O3)cc1`: inactive: 1.01; for `C[C@@H]1CN([C@H](C)CO)C(=O)c2cccc(NC(=O)c3cnccn3)c2O[C@H]1CN(C)Cc1ccc(C(=O)O)cc1`: inactive: 1.01; for `C[C@@H]1CN([C@@H](C)CO)C(=O)Cc2cc(NC(=O)Cc3cn(C)c4ccccc34)ccc2O[C@H]1CN(C)C(=O)Nc1cccc2ccccc12`: inactive: 1.01. In the case of `Nc1nc(=O)c2[nH]c(=O)c(=O)[nH]c2[nH]1` it was inactive: 0.996; in that of `NC(=O)[C@@H]1[C@H]2C(=O)O[C@H](c3ccccc3)[C@H](c3ccccc3)N2[C@H](c2ccc(OCCO)cc2)[C@@]12C(=O)Nc1ccc(C#CC3=CCCCC3)cc12`, inactive: 1.02. The same measure for `C[C@H](CO)N1C[C@H](C)[C@@H](CN(C)Cc2ccc(O)cc2)OCc2ccccc2-c2c(n(C)c3ccccc23)C1=O`: inactive: 1. On to `O=C1O[C@H](c2ccccc2)[C@H](c2ccccc2)N2[C@H]1[C@@H](C(=O)N1CCCCCCC1)[C@]1(C(=O)Nc3ccc(C#CCCO)cc31)[C@H]2c1ccc(O)cc1`, for which the relative growth is inactive: 1.04. In the case of `C[C@@H]1CN([C@H](C)CO)C(=O)c2cc(NC(=O)CCN3CCOCC3)ccc2O[C@H]1CN(C)CC1CCCCC1` it was inactive: 1.02; in that of `Cc1noc(C)c1S(=O)(=O)Nc1ccc2c(c1)CC(=O)N([C@H](C)CO)C[C@H](C)[C@H](CN(C)Cc1ccc3c(c1)OCO3)O2`, inactive: 1. The same measure for `C[C@H](CO)N1C[C@H](C)[C@H](CN(C)C(=O)Nc2ccccc2)Oc2c(NC(=O)C3CCOCC3)cccc2C1=O`: inactive: 0.982; for `C[C@H]1CN([C@@H](C)CO)C(=O)c2cccc(NC(=O)Nc3cccc4ccccc34)c2O[C@H]1CN(C)Cc1ccncc1`: inactive: 1.01; for `C[C@@H]1CN([C@H](C)CO)C(=O)c2cc(NS(=O)(=O)c3ccc(Cl)cc3)ccc2O[C@H]1CN(C)S(=O)(=O)c1cn(C)cn1`: inactive: 0.994. The same measure for `C[C@H]1CN([C@@H](C)CO)C(=O)Cc2cc(NS(=O)(=O)c3cn(C)cn3)ccc2O[C@@H]1CN(C)Cc1ccc2c(c1)OCO2`: inactive: 1.03; for `C[C@H](CO)N1C[C@H](C)[C@H](CN(C)C(=O)c2ccc(N3CCN(C)CC3)cc2)OCc2cnnn2CCCC1=O`: inactive: 0.994; for `C=CC[C@H](CC(=O)NCCO)C(=O)NC[C@H](OC(=O)[C@H](CC=C)CC(=O)OC(C)(C)C)c1ccccc1`: inactive: 1.01.

As for `Cc1noc(C)c1S(=O)(=O)Nc1ccc2c(c1)C(=O)N([C@@H](C)CO)C[C@H](C)[C@H](CN(C)CC1CC1)O2`, the relative growth was inactive: 0.999.

`C[C@@H]1CN([C@H](C)CO)C(=O)c2cccc(NC(=O)Nc3ccc(F)cc3)c2O[C@@H]1CN(C)Cc1ccc(Oc2ccccc2)cc1`: the relative growth was inactive: 1.05.
